Source: PubChem BioAssay (Tox21)
“And” between values parts separate entries of the source, which are not always exact repeats. Equal values may be shown once. The shares of active, inactive and inconclusive entries below differ from those in the screen. For some of these results: Potencies beside an inconclusive call are fits to weak or partial responses and may not hold up. Where a structure was tested more than once in an assay, its records may differ in their call. The source made the active and inactive calls. Unless noted, calls follow the shape of the dose curve; as a rule, active = well fitted curve in the direction sought with a large enough effect in the repeat runs; inconclusive = weak or mixed curves; inactive = no such curve, though single readings can be large; an effect the other way counts as inactive or inconclusive.

How the values were obtained:
[1] = qHTS assay to identify small molecule agonists of the TGF-beta/Smad signaling pathway - cell viability counter screen (AID 1346829); also: nearly all actives have a fitted effect of over 45% in size
How it was run: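 Tox21 qHTS format: SBE-bla HEK 293T cells treated with DMSO-dissolved compounds for 5 hr; CellTiter-Glo luminescence after 30 min at room temperature.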

[2] = Human pregnane X receptor (PXR) small molecule agonists, qHTS cell viability counter screen (AID 1346977); also: nearly all actives have a fitted effect of over 50% in size
How it was run: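 Tox21 qHTS format; PXR-Luc HepG2, 2,000/well, charcoal-stripped FBS 5%. Cpd exposure 24hr. Read: CellTiter-Fluor fluorescence, multiplexed with luciferase.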

[3] = Caspase-3/7 induction in CHO-K1 cells by small molecules, qHTS assay (AID 1346980); also: nearly all actives have a fitted effect of over 15% in size
How it was run: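 Wild-type CHO-K1 cells exposed to compounds for 17hr at 37 C, 5% CO2. Caspase-3/7 activity then measured by Caspase-Glo 3/7 luminescence after 30min at room temperature.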

[4] = Caspase-3/7 induction in HepG2 cells by small molecules, qHTS cell viability counter screen (AID 1346981); also: nearly all actives have a fitted effect of over 30% in size
How it was run: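 Wild-type HepG2 cells, 2,000/well, settled 5 hr at 37 C, 5% CO2 before compound addition. Viability read by CellTiter-Fluor fluorescence, reagent added after 16 hr compound exposure, then 1 hr at 37C, in the same wells as the caspase read.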

[5] = target: Cytochrome P450 2D6 (Homo sapiens) (UniProt P10635); test: Cytochrome P450 Family 2 Subfamily D Member 6 (CYP2D6) small molecule antagonists: luciferase reporter qHTS assay (AID 1671196); also: nearly all actives have a fitted effect of over 50% in size
UniProt P10635, sequence (P10635 whole entry, looked up): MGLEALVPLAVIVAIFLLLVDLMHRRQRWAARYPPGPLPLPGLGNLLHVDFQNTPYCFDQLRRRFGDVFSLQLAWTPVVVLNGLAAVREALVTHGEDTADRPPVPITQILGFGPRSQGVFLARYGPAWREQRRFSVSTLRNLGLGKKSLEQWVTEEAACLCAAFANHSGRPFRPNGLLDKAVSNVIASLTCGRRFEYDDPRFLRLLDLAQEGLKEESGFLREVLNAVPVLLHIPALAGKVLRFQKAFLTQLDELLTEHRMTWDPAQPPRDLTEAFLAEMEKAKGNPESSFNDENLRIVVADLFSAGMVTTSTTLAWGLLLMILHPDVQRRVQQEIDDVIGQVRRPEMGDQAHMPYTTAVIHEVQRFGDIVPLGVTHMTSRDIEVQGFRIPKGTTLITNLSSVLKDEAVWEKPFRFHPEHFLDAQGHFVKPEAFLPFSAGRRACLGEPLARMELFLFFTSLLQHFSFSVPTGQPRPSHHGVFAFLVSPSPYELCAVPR
How it was run: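 Cell-free P450-Glo system: CYP2D6 with proluciferin substrate was pre-incubated with compound for 10 min, then reacted with NADPH regeneration for 1 h at room temperature. Luciferin product was detected after 20 min, and data were reported as relative luminescence units.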

[6] = qHTS assay to identify small molecule antagonists of the TGF-beta/Smad signaling pathway (AID 1346924; active = well fitted inhibition curve with a large enough effect in the signal ratio in the repeat runs, not every such curve was filed as active; inconclusive = weak or mixed curves; the % refers to the signal ratio); conditions: SBE-bla HEK293T, TGF-beta/Smad reporter, beta-lactamase ratio; activity, negative = inhibition: at 76.8 µM (top of the series) unless noted
How it was run: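 SBE-bla HEK 293T cells were plated overnight, then received compound in DMSO plus TGF-beta1 (added as a 0.25 ng/mL solution) and were incubated 5 h at 37 C. Beta-lactamase reporter activity was read after 2 h at room temperature with LiveBLAzer B/G FRET substrate (ex 405, em 460/530 nm).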

[7] = Caspase-3/7 induction in CHO-K1 cells by small molecules, qHTS cell viability counter screen (AID 1346979); also: nearly all actives have a fitted effect of over 35% in size
How it was run: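 CellTiter-Fluor viability check, qHTS format: wild-type CHO-K1, 16hr compound treatment, 1hr reagent incubation, fluorescence read.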

[8] = target: Nuclear receptor subfamily 1 group I member 2 (Homo sapiens) (UniProt O75469); test: Human pregnane X receptor (PXR) small molecule agonists, qHTS assay (AID 1346982); also: nearly all actives have a fitted effect of over 35% in size
UniProt O75469, sequence (O75469 whole entry, looked up): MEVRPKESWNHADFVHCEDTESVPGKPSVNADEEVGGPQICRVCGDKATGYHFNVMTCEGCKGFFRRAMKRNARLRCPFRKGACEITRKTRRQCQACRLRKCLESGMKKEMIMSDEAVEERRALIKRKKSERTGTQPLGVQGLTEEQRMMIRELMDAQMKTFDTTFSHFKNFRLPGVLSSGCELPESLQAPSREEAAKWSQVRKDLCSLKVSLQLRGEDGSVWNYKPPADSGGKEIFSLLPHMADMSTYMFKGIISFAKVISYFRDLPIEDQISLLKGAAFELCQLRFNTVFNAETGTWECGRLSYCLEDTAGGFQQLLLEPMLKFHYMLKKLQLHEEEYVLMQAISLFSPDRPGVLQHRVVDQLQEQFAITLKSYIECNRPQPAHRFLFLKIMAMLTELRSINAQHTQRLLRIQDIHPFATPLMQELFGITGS
How it was run: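 PXR-Luc HepG2 reporter cells (CYP3A4-driven luciferase) in 5% charcoal-stripped FBS medium, plated 5 h before compound addition, then treated 24 h at 37C. Luciferase read by ONE-Glo luminescence after 30 min at room temperature.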

[9] = target: Thyrotropin-releasing hormone receptor (Homo sapiens) (UniProt P34981); test: qHTS assay to identify small molecule antagonists of the thyrotropin-releasing hormone receptor (TRHR) signaling pathway (AID 1346877; active = well fitted inhibition curve with a large enough effect in the repeat runs, not every such curve was filed as active; inconclusive = weak or mixed curves)
UniProt P34981, sequence (P34981 whole entry, looked up): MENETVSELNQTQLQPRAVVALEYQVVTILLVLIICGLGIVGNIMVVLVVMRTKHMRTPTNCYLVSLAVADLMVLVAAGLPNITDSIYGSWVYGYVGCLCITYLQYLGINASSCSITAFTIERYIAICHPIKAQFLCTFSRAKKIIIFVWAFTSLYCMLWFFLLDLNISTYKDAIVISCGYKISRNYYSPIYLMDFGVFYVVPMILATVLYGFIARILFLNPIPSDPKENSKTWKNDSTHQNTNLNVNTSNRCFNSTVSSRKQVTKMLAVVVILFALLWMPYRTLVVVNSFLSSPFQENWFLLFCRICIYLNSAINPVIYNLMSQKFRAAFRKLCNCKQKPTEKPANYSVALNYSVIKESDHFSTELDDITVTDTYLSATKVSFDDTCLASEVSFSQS
How it was run: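 TRHR-expressing HEK293 cells loaded with calcium dye for 2 h at 37 C; compounds pre-incubated 5 min at room temperature before TRH challenge at 1 nM final. Intracellular calcium fluorescence read kinetically for 3 min; 15 concentrations in triplicate.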

[10] = target: Thyrotropin-releasing hormone receptor (Homo sapiens) (UniProt P34981); test: qHTS assay to identify small molecule agonists of the thyrotropin-releasing hormone receptor (TRHR) signaling pathway (AID 1346891; calls by dose curve)
How it was run: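 Screening of agonists relied on calcium signalling in HEK293 cells expressing human TRHR: dye loading 2 h at 37 °C preceded compound addition and a 3-min fluorescence time course.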

[11] = target: Cytochrome P450 2C19 (Homo sapiens) (UniProt P33261); test: Cytochrome P450 Family 2 Subfamily C Member 19 (CYP2C19) small molecule antagonists: luciferase reporter qHTS assay (AID 1671197); also: nearly all actives have a fitted effect of over 65% in size
UniProt P33261, sequence (P33261 whole entry, looked up): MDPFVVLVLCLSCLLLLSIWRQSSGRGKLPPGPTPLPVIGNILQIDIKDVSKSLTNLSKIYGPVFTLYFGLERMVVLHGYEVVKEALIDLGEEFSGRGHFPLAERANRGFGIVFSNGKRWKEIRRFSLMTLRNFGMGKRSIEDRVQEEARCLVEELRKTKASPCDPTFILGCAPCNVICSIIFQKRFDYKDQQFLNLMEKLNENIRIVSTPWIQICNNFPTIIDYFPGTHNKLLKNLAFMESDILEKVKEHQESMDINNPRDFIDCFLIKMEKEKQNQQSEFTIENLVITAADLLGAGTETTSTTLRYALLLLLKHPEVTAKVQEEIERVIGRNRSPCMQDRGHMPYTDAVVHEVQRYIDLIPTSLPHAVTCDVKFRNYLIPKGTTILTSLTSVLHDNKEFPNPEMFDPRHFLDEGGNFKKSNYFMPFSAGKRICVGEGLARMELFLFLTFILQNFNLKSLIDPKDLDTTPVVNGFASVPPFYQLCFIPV
How it was run: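 Relative luminescence units recorded 20 min after the detection reagent stopped a 1 h, 37C CYP2C19 reaction on proluciferin substrate, which was started by NADPH regeneration following 10 min room-temperature compound preincubation; ketoconazole positive control.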

[12] = target: Acetylcholinesterase (Homo sapiens) (UniProt P22303); test: Acetylcholinesterase (AChE) small molecule antagonists: colormetric cell-based qHTS assay (AID 1347395; calls by dose curve; also: nearly all actives have a fitted effect of over 30% in size)
UniProt P22303, sequence (P22303 whole entry, looked up): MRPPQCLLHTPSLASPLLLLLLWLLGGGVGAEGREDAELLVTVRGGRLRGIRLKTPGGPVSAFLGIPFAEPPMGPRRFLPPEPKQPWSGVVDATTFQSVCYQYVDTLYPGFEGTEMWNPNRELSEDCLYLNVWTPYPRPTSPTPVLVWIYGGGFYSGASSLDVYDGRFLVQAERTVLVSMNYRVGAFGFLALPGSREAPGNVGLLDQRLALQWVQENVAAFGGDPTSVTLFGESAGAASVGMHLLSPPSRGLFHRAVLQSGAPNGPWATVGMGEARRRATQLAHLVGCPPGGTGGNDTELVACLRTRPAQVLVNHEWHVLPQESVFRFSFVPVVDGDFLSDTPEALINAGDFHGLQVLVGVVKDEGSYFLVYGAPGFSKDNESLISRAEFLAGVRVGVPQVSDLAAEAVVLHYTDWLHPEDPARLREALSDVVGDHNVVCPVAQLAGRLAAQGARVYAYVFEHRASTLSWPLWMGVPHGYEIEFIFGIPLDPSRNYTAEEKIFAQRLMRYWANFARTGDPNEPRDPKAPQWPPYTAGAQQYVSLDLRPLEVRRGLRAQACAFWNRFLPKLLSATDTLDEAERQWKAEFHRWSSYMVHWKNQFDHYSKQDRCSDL
How it was run: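 AChE inhibition read colorimetrically via DTNB–thiocholine in SH-SY5Y cells. Compound 30 min, substrate 90 min, both 37 C.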

[13] = qHTS assay to identify small molecule agonists of the TGF-beta/Smad signaling pathway (AID 1346859; active = well fitted activation curve with a large enough effect in the signal ratio in the repeat runs, not every such curve was filed as active; inconclusive = weak or mixed curves; the % refers to the signal ratio); conditions: SBE-bla HEK293T, TGF-beta/Smad beta-lactamase reporter, 5 h; activation: at 76.8 µM (top of the series) unless noted
How it was run: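 Each well held 4,000 SBE-bla HEK 293T cells incubated overnight before compound addition; 5 hr later the cleavable FRET substrate went on for 2 hr at room temperature, and fluorescence was read at two emissions.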
Potency is read from the fitted curve at half-maximal effect; tags tell the direction and shape of the fitted curve or compound fluorescence and quenching.

CCCCCCCCCCCCCC[P+](CCCCCC)(CCCCCC)CCCCCC (tested in a mixture with another compound)
Potency [1]: active: 49 µM | Potency [2]: active: 3.86 µM | Potency [3]: inconclusive: 9.69 µM [activator, partial curve, poor fit] | Potency [4]: active: 24.3 µM | Potency [5]: active: 1.26 µM

CCCCOCC1CO1 (configuration not stated)
Potency [1]: inconclusive: 31.1 µM [cytotoxic, partial curve, poor fit] | Potency [6]: inconclusive: 19.6 µM [rising, full curve] | Potency [2]: inconclusive: 25.1 µM [cytotoxic, partial curve] | Potency [7]: inconclusive: 69 µM [cytotoxic, single point] | Potency [8]: inconclusive: 69 µM [activator, single point]

O=C(NCc1cccnc1)Nc1ccc([N+](=O)[O-])cc1
Potency [1]: inconclusive: 54.9 µM [cytotoxic, single point] | Potency [2]: inactive | Potency [5]: active: 35.6 µM

CC[C@H](C)[C@H]1O[C@]2(C=C[C@@H]1C)C[C@@H]1C[C@@H](C/C=C(\C)[C@@H](O[C@H]3C[C@H](OC)[C@@H](O[C@H]4C[C@H](OC)[C@@H](NC)[C@H](C)O4)[C@H](C)O3)[C@@H](C)/C=C/C=C3\CO[C@@H]4[C@H](O)C(C)=C[C@@H](C(=O)O1)[C@]34O)O2
Potency [1]: active: 15.5 µM | Potency [6]: inconclusive: 6.16 µM | Potency [2]: active: 6.86 µM | Potency [3]: active: 6.11 µM | Potency [4]: active: 15.4 µM | Potency [8]: inconclusive: 6.11 µM [activator, single point] | Potency [5]: active: 63.3 µM

Nc1ccc(-c2ccc(N)c(Cl)c2)cc1Cl
Potency [1]: inconclusive: 54.9 µM [cytotoxic, single point] | activity, negative = inhibition [6]: inconclusive: 6.43% and inconclusive: -12.9% and inconclusive: -13.7% | Potency [2]: inconclusive: 2.51 µM [cytotoxic, full curve] and active: 3.98 µM and active: 54.5 µM | Potency [4]: inconclusive: 2.45 µM [cytotoxic, full curve] | Potency [8]: inconclusive: 3.6 µM [activator, partial curve, poor fit] | Potency [5]: inconclusive: 35.6 µM [inhibitor]

CCCC[n+]1ccc(C)cc1
Potency [1]: inconclusive: 61.3 µM [cytotoxic] | Potency [9]: active: 24 µM | Potency [10]: active: 15.5 µM | activity, negative = inhibition [6]: inconclusive: 29.2% | Potency [2]: inconclusive: 68.2 µM [cytotoxic, single point] | Potency [7]: inactive and active: 54.2 µM | Potency [3]: inconclusive: 54.2 µM [activator, partial curve] | Potency [4]: inconclusive: 68.2 µM [cytotoxic, single point] and active: 19.4 µM | Potency [8]: inconclusive: 24.2 µM [activator, partial curve] | Potency [5]: inconclusive: 70.6 µM [inhibitor, partial curve] and inconclusive: 45.4 µM [inhibitor, partial curve] | Potency [11]: inconclusive: 88.9 µM [inhibitor, single point] and inconclusive: 89.5 µM [inhibitor, single point]

CCOP(=O)(O)OCC (tested in a mixture with another compound)
Potency [1]: active: 54.5 µM | Potency [6]: inconclusive: 19.3 µM [rising, partial curve] | Potency [7]: inactive and active: 24.1 µM | Potency [12]: inconclusive: 79 µM [inhibitor] | Potency [11]: inconclusive: 80.4 µM [inhibitor, single point]

O=[Se]=O
Potency [1]: active: 4.86 µM | Potency [6]: inconclusive: 9.7 µM [partial curve] | Potency [2]: active: 24.2 µM | Potency [7]: inconclusive: 34.1 µM [cytotoxic, single point] | Potency [11]: inconclusive: 44.5 µM [inhibitor, single point]

CCCCCCCCCCCCCCCC[n+]1ccccc1
Potency [1]: active: 54.2 µM [middle of 4 runs] | Potency [13]: inconclusive: 17.4 µM [rising, partial curve] [middle of 4 runs] | Potency [10]: active: 36.3 µM and inconclusive: 38.9 µM [activator, partial curve, poor fit] and inconclusive: 38.4 µM [activator, single point] | Potency [4]: inconclusive: 23.7 µM [cytotoxic, partial curve] | Potency [11]: inactive
